Test results from the supplement of paper PMC11417369.
Some of the results follow.

The sequences below were run on PfHDP1 homeodomain (GST-tagged) (assay: gcPBM binding intensity (ln(normalized median fluorescence intensity)); higher = stronger DNA binding).
Outline: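 Probes on an Agilent 4 × 180k array were primer-extended, double-stranded and 36 bp long, taken from intergenic genomic regions, with negative controls added. GST-tagged P. falciparum DNA-binding domains from E. coli, about 25 μg on average, were applied to the array for 1 h in 1× PBS containing 1% milk, 0.2 mg/ml BSA, 0.5% salmon testes DNA and 0.03% Triton X-100. Binding intensity, obtained after Alexa488 anti-GST antibody detection and a 488 nm scan, is the highest Masliner-normalised natural-log median intensity across replicate spots of either probe orientation.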

Sequence	gcPBM binding intensity (ln)
TTTTATAAAGAACACAGACACACAAAGAAAGAACCA [CACACA_site4174]	7.07
ATAAAAAGCTAAAAAGTGCAAAAAGTAAATATTTAA	8.61
TTTATTTAAAATAAGTGTACTAGAAAAATTAAGCAG [XGTACX_site4982]	6.85
ATTCCTCATTAATATTCTTATTTTTTAATTCACATT [XGTACX_negctrl_site329]	6.72
TAAAAGGAGACATATACACACATATATATATATATA [CACACA_site5539]	9.29
TGTGATTATGATAAAAGTACAGAAATAAATATACTA [XGTACX_site38]	6.15
TTATGTATATTATAAATTAATACCTTTAAATTAATA [CACACA_negctrl_site67]	5.95
ATAATCCTGAAACACACACACACACCCATAAATAAA [CACACA_site481]	6.92
TATAACTTATTTTTTAGTACATATTATAGTTCATTT [XGTACX_site8649]	6.32
TATATATACTTAGAAACACACAAAAATATTTTATAA [CACACA_site2578]	6.55
TAATTAGTTTTTACTTTTTTTTTTTTTTTTCTATAT [CACACA_negctrl_site1024]	5.76
TATTATAAATAAATAGAAAAAAAAATGATAAATGGA [CACACA_negctrl_site865]	6.48
ATAATAAATACACTAGTGCAAAATAATATATGTACT [GTGCAC_site9707]	9.79
TTTATTTATATAATTACACACATATATACTCAAATG [CACACA_site5543]	6.67
ATATGTACTATACGCACACACACTCACATATTTATA [CACACA_site7510]	8.15
ATAGGGTTTCTACTTTAACATTTTTGAAATATTATA [GTGCAC_negctrl_site260]	6.53
TTCTTAATTCATACCATCAAAACATTTATTCATATC [CACACA_negctrl_site43]	6.3
TAAAAATGATCAAAGGGTACAGTATTAATTAAAAAA [XGTACX_site1079]	6.5
TTTACTTTTTTTATATATTATTTATTATATAATATA [CACACA_negctrl_site211]	6.48
CTTAAACTTTTAAATACACACATACAGACATACACA [CACACA_site6401]	6.92
TACATATATATAATATATATATCATCATATTTTCTT [XGTACX_negctrl_site478]	6.39
ATATACAGAAAAAATTAAAATAAATATGCAAAACAA [CACACA_negctrl_site704]	7.47

Sequence	gcPBM binding intensity (ln)
AATATACGATTGTCATTCATACATTGTTAACATAGT [CACACA_negctrl_site1151]	6.42
TACAATGAACATGAAACACACAAAAAAAAAAAAAAA [CACACA_site1544]	6.52
ACATAGTAAATATTATGTACATAATATATACATTTA [XGTACX_site7500]	6.46
TTTTGCCTGAACAATGCATGTTATTTTTATTTTTTT [TGCATGCA_site673]	6.66
TCATTTAAGTCATATTGAAATATGCATTATTCAAAA [CACACA_negctrl_site958]	6.41
TTTATATTTCATTTGTTATTTTTCTTGGTTCTATAT [TGCATGCA_negctrl_site23]	6.6
TTTTTTTTTTTTTTTTTTATATTTCATAATTTCATT [XGTACX_negctrl_site579]	6.22
AATATATACACATGCGCACACACAAGTGGGAAATTT [CACACA_site8527]	7.72
AAATGTGTTAATGTGCGTACACATATATATAATATT [XGTACX_site2792]	6.66
ATCACTAATTTTTTTACACACCACAATTTAATTTTT [CACACA_site1186]	7.07
CACATTTCTGTAGTTGCATGTAGAAAAAAAAAAAAA [TGCATGCA_site810]	6.45
AATACAATTGAAAATTGTACTTTGTTTTTTATAAAT [XGTACX_site4080]	5.83
TTTTGAGAAAAAATAAAATAATAAATAAAAATACAT [XGTACX_negctrl_site66]	6.48
CATATAATAAATAATACACACATATTGGAAATATAT [CACACA_site3212]	6.47
AAAGGTATATATGTGTGTACATATATATATATATAT [XGTACX_site5629]	9.29
GGTCATCATCGGTATTGTACAAAAATGTGAAAATTA [XGTACX_site639]	6.86
TTTTTTTTTTTGGTTACACACATTTGTATATTCTCA [CACACA_site134]	6.45
CATATTAATACAGAATGTACGGATAACAAACTGTTT [XGTACX_site7935]	6.12
CCATAACTCCTATGCACACATAAATATTACAGAGAT [CACACA_site5984]	9.78
TTTTATTTAGGAGGTGCATGTAATACGGAACATAAT [TGCATGCA_site827]	8.17
GATTTATATTTTAAAAGTACAAGTTAAAATAAAAGT [XGTACX_site7059]	6.6
TTTGATTTTAATGTGTGTACACATTTATTTATATAA [XGTACX_site4806]	6.65

Sequence	gcPBM binding intensity (ln)
ATATAATATCTGTATACACACATATTATATAATATT [CACACA_site5940]	6.72
AATATAAGATTATTATGTACATAATAAATATGTATT [XGTACX_site4773]	6.52
ATATAAGTATAATTATGTACTTATACTTATATAAAT [XGTACX_site5585]	6.22
ATTAGTTTATATGAATGATTTTTCTTTTTTTTTTTT [CACACA_negctrl_site88]	6.05
TTACTATTTCACTGTGCATGCAACAAAAATCTATCT [TGCATGCA_site808]	9.48
ATATTTTGGGTGTTGTTTTTTTTTAAAACTCTTTAA [CACACA_negctrl_site1255]	6.92
AAAAATAAAAAAAAATTAAAATATATATATTTTGTT [TGCATGCA_negctrl_site102]	6.4
AACATATTTATATACACACACATATTTATATGAAAT [CACACA_site6268]	6.85
GAGAGGATACATACATGTACATAAATATTTTATTTT [XGTACX_site5129]	6.52
AGGAAAAAAAGTAGCACACAAATATTTATAATATAT [CACACA_site2437]	6.65
AAAAAAAAAAAAAATAATAAATAAATAAATAAATAA [GTGCAC_negctrl_site505]	6.85
CGTAGCCGCACTAACACACACAAATATACGCAATCA [CACACA_site2898]	7.03
TTTTGAATTAAACAAGCATGCTTTATTTACTTCTTA [TGCATGCA_site289]	6.32
TAATTTATTAATAATTGTACAGATATTATACTTAAA [XGTACX_site8947]	6.2
TAATTCATCCTATGCACACACAATACCAAAATGTGC [CACACA_site4269]	10.1
TGCTCATGAGGTCAGAGTACAAAATAGTAAATGTAT [XGTACX_site2973]	6.94
TTTTTTTTTTTTTTTCTTTTTTATTCTCACAAAAAA [CACACA_negctrl_site1790]	6.09
TTTATTTTTATTTTTGTGCACGGGATTAAATAAAAG [GTGCAC_site9842]	9.88
GAACAAATTACAAGTTGTACTTTATGTAAATTATTA [XGTACX_site5304]	6.2
TTTTTATAACAAAGTATTTAAATAATTTATACTAAT [TGCATGCA_negctrl_site104]	6.41
ATGCGTTCATACATACATACATACATACAATTTGTA [TGCATGCA_negctrl_site50]	6.76
AACATTTATATTTAAGTGCAGATGCTGTAATTTAGA	7.14

Sequence	gcPBM binding intensity (ln)
AAATTTATATATAGTTGTACAAAAATATGTTTCGTA [XGTACX_site4801]	6.62
TTATTTTATCACACATGTACATATGTTAATTTTTTT [XGTACX_site5598]	6.88
AAAATAAAAAGAAATAAATTAACAGTAAGGAAAAAA [CACACA_negctrl_site1105]	6.75
TGAATAATCAATAGTACACACATATAAATATATATA [CACACA_site2813]	6.49
ATATTTTTTCTGAACGGTACAGAATTTTTCAAGATT [XGTACX_site484]	6.51
TATATATATCTGTATACACACATATGTATGTTATGT [CACACA_site6090]	6.99
CCTTTTTCTAATGGATGTACTTATTATATACATTAT [XGTACX_site281]	6.4
AAGAAAAGTAAATATGCATGTAGGGTAGGTTATTTT [TGCATGCA_site46]	6.65
ATATAACAGAAACACACACACATATATATATATTAT [CACACA_site4140]	6.95
TATTTTTATATATAATCACACATTGGAATGTTCTAA [CACACA_site5540]	6.53
ATAAATGATAGTAAAAGTACACAAAATGTTTTAAAA [XGTACX_site1623]	6.33
TTCTTTATGGAAGTGTAAAAAAAGAAATACTTTTTT [CACACA_negctrl_site915]	6.03
GCACGAAACAATGTATATATATATATATATATATAT [GTGCAC_negctrl_site412]	9.54
AATAAATAGAGGAAATGTACATATAAAAATAATTTC [XGTACX_site2454]	6.59
GATTATCTTCAAGTATGTACACACTATATATAATAA [XGTACX_site5108]	6.64
TTAACATCTTCGTTGACACACAAAAAAAAAAATAAT [CACACA_site1819]	6.3
ATTACATGTATACATGTCAACACGTATAAAAAAAAA [CACACA_negctrl_site1154]	6.66
ATTATAAATATATTTTGTACTTAAAAGGAAAAAAAA [XGTACX_site55]	6.21
TACACAAACAGACACACACACACACGCGCACAAAAA [CACACA_site7192]	7.75
AATAAGCATAGACACACACACAAAAAAAAAAAAAAA [CACACA_site6476]	6.46
TTATTTCTTCAGAAAAAATTAAAAAATTAAACAATA [CACACA_negctrl_site169]	6.12
